In paper PMC12756210:
Results are given in words; binding and its absence hold for the method and conditions named. For some assays here: In cells and extracts the contact can be indirect. Some results given as binding are weak or reduced against the parent protein; the word gives no strength. Tags and fused reporters may be left off the sequences shown.

Amino acid sequences for entries named in this document (tags omitted).
UniProt P05804: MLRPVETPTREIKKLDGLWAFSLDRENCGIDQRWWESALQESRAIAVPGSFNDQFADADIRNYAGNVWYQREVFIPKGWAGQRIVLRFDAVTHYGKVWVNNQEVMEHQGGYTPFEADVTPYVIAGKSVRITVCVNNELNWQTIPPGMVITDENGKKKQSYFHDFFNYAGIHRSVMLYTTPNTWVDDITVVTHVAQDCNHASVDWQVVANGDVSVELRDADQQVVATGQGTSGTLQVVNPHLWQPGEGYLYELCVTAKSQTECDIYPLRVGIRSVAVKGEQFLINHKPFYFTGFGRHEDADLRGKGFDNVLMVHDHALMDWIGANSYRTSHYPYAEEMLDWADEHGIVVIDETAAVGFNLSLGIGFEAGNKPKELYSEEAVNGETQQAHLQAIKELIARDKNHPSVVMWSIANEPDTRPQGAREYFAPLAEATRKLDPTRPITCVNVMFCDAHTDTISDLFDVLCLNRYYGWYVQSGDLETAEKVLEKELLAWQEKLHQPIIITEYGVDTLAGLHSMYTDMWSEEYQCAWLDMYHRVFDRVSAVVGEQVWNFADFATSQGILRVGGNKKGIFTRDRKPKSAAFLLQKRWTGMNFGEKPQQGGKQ

T1: ZIP2-cYFP (Arabidopsis) (UniProt Q9LTH9)
T1 sequence: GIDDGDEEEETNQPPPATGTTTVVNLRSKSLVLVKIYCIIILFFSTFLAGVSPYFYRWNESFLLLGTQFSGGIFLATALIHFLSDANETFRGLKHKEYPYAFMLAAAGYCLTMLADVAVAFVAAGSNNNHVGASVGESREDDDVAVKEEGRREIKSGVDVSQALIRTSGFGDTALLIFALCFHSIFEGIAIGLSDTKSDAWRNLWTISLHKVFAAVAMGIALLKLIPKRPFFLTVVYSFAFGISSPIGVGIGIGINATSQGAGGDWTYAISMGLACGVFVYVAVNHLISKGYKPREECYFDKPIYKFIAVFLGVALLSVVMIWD

T2: ZIP2-cLUC (Arabidopsis) (UniProt Q9LTH9)
T2 sequence: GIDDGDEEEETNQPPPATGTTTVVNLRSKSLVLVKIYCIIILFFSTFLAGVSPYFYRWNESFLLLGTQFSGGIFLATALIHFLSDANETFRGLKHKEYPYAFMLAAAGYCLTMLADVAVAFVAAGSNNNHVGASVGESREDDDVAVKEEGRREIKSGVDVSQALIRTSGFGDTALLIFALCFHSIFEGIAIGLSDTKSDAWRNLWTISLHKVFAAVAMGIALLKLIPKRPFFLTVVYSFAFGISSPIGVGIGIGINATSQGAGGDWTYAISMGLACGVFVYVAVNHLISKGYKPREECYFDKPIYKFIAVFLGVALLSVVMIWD

T3: GST-ZIP2-Loop (Arabidopsis) (UniProt Q9LTH9)
T3 sequence: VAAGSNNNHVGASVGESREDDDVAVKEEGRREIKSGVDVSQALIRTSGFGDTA


Assays:
GUS-cYFP = GUS-cYFP (UniProt P05804); test: split reporter; BiFC: nYFP and cYFP fusions transiently co-expressed in N. benthamiana leaves with CBL1-OFP as plasma membrane marker; YFP fluorescence read 48 h after transfection
ZIP2-cYFP (Arabidopsis) = target: T1, ZIP2-cYFP (Arabidopsis); test: as above
ZIP2-cLUC (Arabidopsis) = target: T2, ZIP2-cLUC (Arabidopsis); test: split reporter; split luciferase complementation imaging (LCI): nLUC and cLUC fusions co-infiltrated by Agrobacterium GV3101 into N. benthamiana leaves, expressed 48 h, signal read by CCD
GUS-cLUC = GUS-cLUC (UniProt P05804); test: as above
[1] = target: T3, GST-ZIP2-Loop (Arabidopsis); test: pull-down; GST-ZIP2-Loop (or GST) on glutathione beads incubated with His-CIPK3/9/23/26; eluate blotted with anti-His antibody; both purified

| Binder | binding (GUS-cYFP) | binding (ZIP2-cYFP (Arabidopsis)) | binding (ZIP2-cLUC (Arabidopsis)) | binding (GUS-cLUC) | binding [1] |
| --- | --- | --- | --- | --- | --- |
| CIPK9-His (protein, UniProt Q9MAM1 1-447) MSGSRRKATPASRTRVGNYEMGRTLGEGSFAKVKYAKNTVTGDQAAIKILDREKVFRHKMVEQLKREISTMKLIKHPNVVEIIEVMASKTKIYIVLELVNGGELFDKIAQQGRLKEDEARRYFQQLINAVDYCHSRGVYHRDLKPENLILDANGVLKVSDFGLSAFSRQVREDGLLHTACGTPNYVAPEVLSDKGYDGAAADVWSCGVILFVLMAGYLPFDEPNLMTLYKRICKAEFSCPPWFSQGAKRVIKRILEPNPITRISIAELLEDEWFKKGYKPPSFDQDDEDITIDDVDAAFSNSKECLVTEKKEKPVSMNAFELISSSSEFSLENLFEKQAQLVKKETRFTSQRSASEIMSKMEETAKPLGFNVRKDNYKIKMKGDKSGRKGQLSVATEVFEVAPSLHVVELRKTGGDTLEFHKFYKNFSSGLKDVVWNTDAAAEEQKQ |  |  |  |  | binds |
| CIPK9-nLUC (protein, UniProt Q9MAM1 1-447) MSGSRRKATPASRTRVGNYEMGRTLGEGSFAKVKYAKNTVTGDQAAIKILDREKVFRHKMVEQLKREISTMKLIKHPNVVEIIEVMASKTKIYIVLELVNGGELFDKIAQQGRLKEDEARRYFQQLINAVDYCHSRGVYHRDLKPENLILDANGVLKVSDFGLSAFSRQVREDGLLHTACGTPNYVAPEVLSDKGYDGAAADVWSCGVILFVLMAGYLPFDEPNLMTLYKRICKAEFSCPPWFSQGAKRVIKRILEPNPITRISIAELLEDEWFKKGYKPPSFDQDDEDITIDDVDAAFSNSKECLVTEKKEKPVSMNAFELISSSSEFSLENLFEKQAQLVKKETRFTSQRSASEIMSKMEETAKPLGFNVRKDNYKIKMKGDKSGRKGQLSVATEVFEVAPSLHVVELRKTGGDTLEFHKFYKNFSSGLKDVVWNTDAAAEEQKQ |  |  | binds | no binding |  |
| CIPK3-nYFP (protein, UniProt Q2V452 1-441) MNRRQQVKRRVGKYEVGRTIGEGTFAKVKFARNSETGEPVALKILDKEKVLKHKMAEQIRREIATMKLIKHPNVVQLYEVMASKTKIFIILEYVTGGELFDKIVNDGRMKEDEARRYFQQLIHAVDYCHSRGVYHRDLKPENLLLDSYGNLKISDFGLSALSQQVRDDGLLHTSCGTPNYVAPEVLNDRGYDGATADMWSCGVVLYVLLAGYLPFDDSNLMNLYKKISSGEFNCPPWLSLGAMKLITRILDPNPMTRVTPQEVFEDEWFKKDYKPPVFEERDDSNMDDIDAVFKDSEEHLVTEKREEQPAAINAFEIISMSRGLNLENLFDPEQEFKRETRITLRGGANEIIEKIEEAAKPLGFDVQKKNYKMRLENVKAGRKGNLNVATEIFQVAPSLHMVQVSKSKGDTLEFHKFYKKLSNSLEQVVWTNNEVKKETAK | no binding | binds |  |  |  |
| CIPK3-His (protein, UniProt Q2V452 1-441) MNRRQQVKRRVGKYEVGRTIGEGTFAKVKFARNSETGEPVALKILDKEKVLKHKMAEQIRREIATMKLIKHPNVVQLYEVMASKTKIFIILEYVTGGELFDKIVNDGRMKEDEARRYFQQLIHAVDYCHSRGVYHRDLKPENLLLDSYGNLKISDFGLSALSQQVRDDGLLHTSCGTPNYVAPEVLNDRGYDGATADMWSCGVVLYVLLAGYLPFDDSNLMNLYKKISSGEFNCPPWLSLGAMKLITRILDPNPMTRVTPQEVFEDEWFKKDYKPPVFEERDDSNMDDIDAVFKDSEEHLVTEKREEQPAAINAFEIISMSRGLNLENLFDPEQEFKRETRITLRGGANEIIEKIEEAAKPLGFDVQKKNYKMRLENVKAGRKGNLNVATEIFQVAPSLHMVQVSKSKGDTLEFHKFYKKLSNSLEQVVWTNNEVKKETAK |  |  |  |  | binds |
| CIPK3-nLUC (protein, UniProt Q2V452 1-441) MNRRQQVKRRVGKYEVGRTIGEGTFAKVKFARNSETGEPVALKILDKEKVLKHKMAEQIRREIATMKLIKHPNVVQLYEVMASKTKIFIILEYVTGGELFDKIVNDGRMKEDEARRYFQQLIHAVDYCHSRGVYHRDLKPENLLLDSYGNLKISDFGLSALSQQVRDDGLLHTSCGTPNYVAPEVLNDRGYDGATADMWSCGVVLYVLLAGYLPFDDSNLMNLYKKISSGEFNCPPWLSLGAMKLITRILDPNPMTRVTPQEVFEDEWFKKDYKPPVFEERDDSNMDDIDAVFKDSEEHLVTEKREEQPAAINAFEIISMSRGLNLENLFDPEQEFKRETRITLRGGANEIIEKIEEAAKPLGFDVQKKNYKMRLENVKAGRKGNLNVATEIFQVAPSLHMVQVSKSKGDTLEFHKFYKKLSNSLEQVVWTNNEVKKETAK |  |  | binds | no binding |  |

Further lines, results first:

| binding (GUS-cYFP) | binding (ZIP2-cYFP (Arabidopsis)) | binding (ZIP2-cLUC (Arabidopsis)) | binding (GUS-cLUC) | binding [1] | Binder |
| --- | --- | --- | --- | --- | --- |
| no binding | binds |  |  |  | CIPK23-nYFP (protein, UniProt Q93VD3 1-482) MASRTTPSRSTPSRSTPSGSSSGGRTRVGKYELGRTLGEGTFAKVKFARNVENGDNVAIKVIDKEKVLKNKMIAQIKREISTMKLIKHPNVIRMFEVMASKTKIYFVLEFVTGGELFDKISSNGRLKEDEARKYFQQLINAVDYCHSRGVYHRDLKPENLLLDANGALKVSDFGLSALPQQVREDGLLHTTCGTPNYVAPEVINNKGYDGAKADLWSCGVILFVLMAGYLPFEDSNLTSLYKKIFKAEFTCPPWFSASAKKLIKRILDPNPATRITFAEVIENEWFKKGYKAPKFENADVSLDDVDAIFDDSGESKNLVVERREEGLKTPVTMNAFELISTSQGLNLGSLFEKQMGLVKRKTRFTSKSSANEIVTKIEAAAAPMGFDVKTNNYKMKLTGEKSGRKGQLAVATEVFQVAPSLYMVEMRKSGGDTLEFHKFYKNLTTGLKDIVWKTIDEEKEEGTDGGGTNGAMANRTIAKQST |
|  |  | binds | no binding |  | CIPK23-nLUC (protein, UniProt Q93VD3 1-482) MASRTTPSRSTPSRSTPSGSSSGGRTRVGKYELGRTLGEGTFAKVKFARNVENGDNVAIKVIDKEKVLKNKMIAQIKREISTMKLIKHPNVIRMFEVMASKTKIYFVLEFVTGGELFDKISSNGRLKEDEARKYFQQLINAVDYCHSRGVYHRDLKPENLLLDANGALKVSDFGLSALPQQVREDGLLHTTCGTPNYVAPEVINNKGYDGAKADLWSCGVILFVLMAGYLPFEDSNLTSLYKKIFKAEFTCPPWFSASAKKLIKRILDPNPATRITFAEVIENEWFKKGYKAPKFENADVSLDDVDAIFDDSGESKNLVVERREEGLKTPVTMNAFELISTSQGLNLGSLFEKQMGLVKRKTRFTSKSSANEIVTKIEAAAAPMGFDVKTNNYKMKLTGEKSGRKGQLAVATEVFQVAPSLYMVEMRKSGGDTLEFHKFYKNLTTGLKDIVWKTIDEEKEEGTDGGGTNGAMANRTIAKQST |
| no binding | binds |  |  |  | CIPK9-nYFP (protein, UniProt Q9MAM1 1-447) MSGSRRKATPASRTRVGNYEMGRTLGEGSFAKVKYAKNTVTGDQAAIKILDREKVFRHKMVEQLKREISTMKLIKHPNVVEIIEVMASKTKIYIVLELVNGGELFDKIAQQGRLKEDEARRYFQQLINAVDYCHSRGVYHRDLKPENLILDANGVLKVSDFGLSAFSRQVREDGLLHTACGTPNYVAPEVLSDKGYDGAAADVWSCGVILFVLMAGYLPFDEPNLMTLYKRICKAEFSCPPWFSQGAKRVIKRILEPNPITRISIAELLEDEWFKKGYKPPSFDQDDEDITIDDVDAAFSNSKECLVTEKKEKPVSMNAFELISSSSEFSLENLFEKQAQLVKKETRFTSQRSASEIMSKMEETAKPLGFNVRKDNYKIKMKGDKSGRKGQLSVATEVFEVAPSLHVVELRKTGGDTLEFHKFYKNFSSGLKDVVWNTDAAAEEQKQ |
